No constants are given. Whether binding was seen depends on the method and setting. Binding seen in cells or lysates may run through a third protein. Some binding calls cover weakened binding; strength is not graded here. For part of these data: Where a sequence is shown, tags or fusion partners need not be part of it.
T1: FRQ 629–989, V5H6-tagged (Neurospora crassa) (UniProt P19970)
T1 sequence: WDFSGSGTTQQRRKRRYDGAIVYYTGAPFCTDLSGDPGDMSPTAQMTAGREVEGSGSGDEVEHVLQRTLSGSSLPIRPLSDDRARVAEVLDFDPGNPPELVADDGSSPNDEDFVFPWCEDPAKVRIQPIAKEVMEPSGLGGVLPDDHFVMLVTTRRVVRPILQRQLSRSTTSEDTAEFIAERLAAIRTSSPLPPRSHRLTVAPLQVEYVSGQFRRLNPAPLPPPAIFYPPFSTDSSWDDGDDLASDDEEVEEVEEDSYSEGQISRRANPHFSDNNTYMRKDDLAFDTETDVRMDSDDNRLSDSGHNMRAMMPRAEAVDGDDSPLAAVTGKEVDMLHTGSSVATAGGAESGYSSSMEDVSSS

Protein sequences, listed by entry. Tags and fused reporters are not part of them.
UniProt Q01371: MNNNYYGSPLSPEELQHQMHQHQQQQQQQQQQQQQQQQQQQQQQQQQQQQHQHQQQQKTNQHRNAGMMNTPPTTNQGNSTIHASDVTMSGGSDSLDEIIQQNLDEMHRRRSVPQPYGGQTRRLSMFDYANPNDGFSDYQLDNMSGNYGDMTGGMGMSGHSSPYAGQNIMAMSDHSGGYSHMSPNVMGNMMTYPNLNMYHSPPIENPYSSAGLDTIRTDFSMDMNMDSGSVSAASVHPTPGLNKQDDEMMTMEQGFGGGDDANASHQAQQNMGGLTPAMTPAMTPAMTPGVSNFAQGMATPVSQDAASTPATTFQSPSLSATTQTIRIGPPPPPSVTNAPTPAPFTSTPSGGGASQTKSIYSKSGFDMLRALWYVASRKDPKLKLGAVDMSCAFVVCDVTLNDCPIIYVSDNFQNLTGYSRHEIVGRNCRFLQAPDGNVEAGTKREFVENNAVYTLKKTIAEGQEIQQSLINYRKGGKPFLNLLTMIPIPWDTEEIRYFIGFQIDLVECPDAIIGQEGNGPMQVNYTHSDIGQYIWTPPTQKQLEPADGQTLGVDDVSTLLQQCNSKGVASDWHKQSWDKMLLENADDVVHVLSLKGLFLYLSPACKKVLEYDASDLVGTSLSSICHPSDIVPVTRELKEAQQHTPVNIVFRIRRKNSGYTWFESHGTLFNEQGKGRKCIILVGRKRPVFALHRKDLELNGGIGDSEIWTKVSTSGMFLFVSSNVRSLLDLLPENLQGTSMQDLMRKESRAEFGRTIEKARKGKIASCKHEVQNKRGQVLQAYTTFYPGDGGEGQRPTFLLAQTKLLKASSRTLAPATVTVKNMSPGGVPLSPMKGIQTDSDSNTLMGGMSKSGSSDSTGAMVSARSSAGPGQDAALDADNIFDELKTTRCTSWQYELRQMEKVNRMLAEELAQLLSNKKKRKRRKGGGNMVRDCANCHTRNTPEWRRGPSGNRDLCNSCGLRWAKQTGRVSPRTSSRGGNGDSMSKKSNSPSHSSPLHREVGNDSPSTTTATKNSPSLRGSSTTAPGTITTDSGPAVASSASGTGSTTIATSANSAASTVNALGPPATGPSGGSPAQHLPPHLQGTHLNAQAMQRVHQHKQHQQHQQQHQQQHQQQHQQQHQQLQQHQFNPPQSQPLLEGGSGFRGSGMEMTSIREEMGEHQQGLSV

T2: FRQ Δ801–856, V5H6-tagged (Neurospora crassa) (UniProt P19970)
T2 sequence: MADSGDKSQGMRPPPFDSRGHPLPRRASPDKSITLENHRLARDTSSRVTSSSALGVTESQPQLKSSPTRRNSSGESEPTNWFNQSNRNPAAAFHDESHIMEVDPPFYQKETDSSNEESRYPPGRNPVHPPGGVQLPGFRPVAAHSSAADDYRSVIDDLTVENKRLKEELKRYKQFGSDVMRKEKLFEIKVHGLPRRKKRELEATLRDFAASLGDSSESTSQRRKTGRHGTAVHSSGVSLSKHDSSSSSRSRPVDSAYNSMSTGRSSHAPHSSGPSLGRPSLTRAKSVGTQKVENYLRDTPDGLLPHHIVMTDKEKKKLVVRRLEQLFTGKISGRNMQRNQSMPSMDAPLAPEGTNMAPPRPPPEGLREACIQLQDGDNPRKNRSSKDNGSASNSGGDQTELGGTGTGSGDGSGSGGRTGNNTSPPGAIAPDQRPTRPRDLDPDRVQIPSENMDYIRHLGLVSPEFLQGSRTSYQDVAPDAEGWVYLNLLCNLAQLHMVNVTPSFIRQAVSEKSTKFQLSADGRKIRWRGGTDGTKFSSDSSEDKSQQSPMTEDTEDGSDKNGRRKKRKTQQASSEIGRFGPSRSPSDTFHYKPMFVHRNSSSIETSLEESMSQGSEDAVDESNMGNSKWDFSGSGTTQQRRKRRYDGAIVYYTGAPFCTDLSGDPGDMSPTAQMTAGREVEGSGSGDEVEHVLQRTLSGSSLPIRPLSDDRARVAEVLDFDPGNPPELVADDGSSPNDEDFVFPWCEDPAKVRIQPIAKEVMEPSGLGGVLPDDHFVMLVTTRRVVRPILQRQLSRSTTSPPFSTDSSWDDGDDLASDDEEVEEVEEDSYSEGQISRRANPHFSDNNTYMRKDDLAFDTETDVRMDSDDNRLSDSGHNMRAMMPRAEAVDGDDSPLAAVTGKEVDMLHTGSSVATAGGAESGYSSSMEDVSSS

T3: FRQ Δ194–199, V5H6-tagged (Neurospora crassa) (UniProt P19970)
T3 sequence: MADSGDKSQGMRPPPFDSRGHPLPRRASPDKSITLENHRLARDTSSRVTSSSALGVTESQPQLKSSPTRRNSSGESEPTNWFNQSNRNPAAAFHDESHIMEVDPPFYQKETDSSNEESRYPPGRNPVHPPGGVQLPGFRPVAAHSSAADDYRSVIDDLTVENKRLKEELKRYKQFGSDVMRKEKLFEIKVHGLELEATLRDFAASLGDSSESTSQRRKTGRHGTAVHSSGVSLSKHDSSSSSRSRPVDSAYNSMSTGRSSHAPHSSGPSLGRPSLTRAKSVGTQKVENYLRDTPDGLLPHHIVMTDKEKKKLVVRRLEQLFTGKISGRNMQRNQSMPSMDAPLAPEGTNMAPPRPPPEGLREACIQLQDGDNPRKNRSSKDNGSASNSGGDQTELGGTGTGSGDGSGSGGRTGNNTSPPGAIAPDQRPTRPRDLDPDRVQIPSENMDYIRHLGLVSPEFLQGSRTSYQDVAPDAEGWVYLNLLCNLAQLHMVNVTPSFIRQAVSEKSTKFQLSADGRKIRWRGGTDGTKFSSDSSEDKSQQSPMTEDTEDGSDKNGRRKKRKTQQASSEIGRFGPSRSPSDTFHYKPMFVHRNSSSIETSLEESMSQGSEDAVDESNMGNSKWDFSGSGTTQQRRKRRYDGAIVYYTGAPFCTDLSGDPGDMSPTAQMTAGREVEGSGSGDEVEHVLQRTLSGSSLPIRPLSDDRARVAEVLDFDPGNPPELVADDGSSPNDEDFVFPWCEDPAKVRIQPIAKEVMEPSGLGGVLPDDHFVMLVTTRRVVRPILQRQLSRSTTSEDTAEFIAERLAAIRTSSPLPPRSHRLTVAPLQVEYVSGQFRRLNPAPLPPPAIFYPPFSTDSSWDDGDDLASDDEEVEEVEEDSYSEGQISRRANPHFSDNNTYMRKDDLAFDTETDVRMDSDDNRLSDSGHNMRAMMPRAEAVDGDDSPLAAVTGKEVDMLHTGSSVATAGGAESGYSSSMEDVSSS


Experiments:
[1] = target: White Collar-1 tagged with V5 (WC-1^V5) (Neurospora crassa) (UniProt Q01371); assay: co-IP; WC-1^V5 pulled down with V5 resin from Neurospora lysate; NaCl in lysis and wash buffers raised to 500 or 1000 mM; Western blot
[2] = target: White Collar-1 tagged with V5 (WC-1^V5) (Neurospora crassa) (UniProt Q01371); assay: co-IP; WC-1^V5 pulled down with V5 resin from Neurospora lysate (light, 25 °C, 24 h); 137 mM NaCl in lysis and wash buffers; Western blot with WC-1, WC-2, FRQ and FRH antibodies
[3] = target: T1, FRQ 629–989, V5H6-tagged (Neurospora crassa); assay: co-IP; V5H6-tagged FRQ (wild type or mutant) pulled down with V5 agarose from Neurospora lysate (cultures in the light, 25 °C); 50 mM Hepes pH 7.4, 137 mM NaCl, 10% glycerol, 0.4% NP-40; 4 °C, 2 h; Western blot with FRQ, FRH, WC-1 and WC-2 antibodies
[4] = target: T2, FRQ Δ801–856, V5H6-tagged (Neurospora crassa); assay: as above
[5] = target: T3, FRQ Δ194–199, V5H6-tagged (Neurospora crassa); assay: as above

| binding [2] | binding [3] | binding [4] | binding [5] | Binder | binding [1] |
| --- | --- | --- | --- | --- | --- |
| binds | binds | no binding |  | FRQ-interacting RNA helicase (FRH) (protein, UniProt Q1K502 1-1106) MDDLFEVFEEQPRAQKKRKASPDVEMADGAAAAAPVANAAAAVTHPQAQAAPAPQKDNIDNNDNNNNNTTTSAVQPTIPNGDAAAAADDVQSPQSPHGLGDNKRRKKTDEAEPIMTDAFQTAESREVTGAQGFAPTEGESIVLSHNIQHQVALPPDLDYEYIPLSEHKPPAEPARTYSFKLDPFQALSVASIEREESVLVSAHTSAGKTVVAEYAIAQCLKKNQRVIYTSPIKALSNQKYRDFQAEFGDVGLMTGDVTINPTASCLVMTTEILRSMLYRGSEIMREVAWVVFDEIHYMRDKIRGVVWEETIILLPDKVRYVFLSATIPNAFQFAEWIAKIHRQACHVVYTDFRPTPLQNYFFPAGGKGILLIVDEKGNFKENNFNQAMAMIEEKKGTDSNDWSAKQKGKGKNKKTNKGGEAADEKADIAKIIKMILKKNFQPVIVFNFSKRECEQMALASSSMKFNAPDEENMVNKVFENALASLSEDDKNLPQISNILPLLRKGIGVHHSGLLPILKETIEILFQEGLIKVLFATETFSIGLNMPARTVVFTQVTKWDGQQRRPLTSSEYIQMAGRAGRRGLDDRGIVIMMVDDKLEPETARAIVVGNQDKLNSAFHLGYNMVLNLLRIEAISPEYMLERCFFQFQNAASVPQLERELISLQQERDAIIIPDESIVKDYYGVRQQLEEYNKDMVFVIQHPQNCLGFFQEGRLIHIKSPSGVDYGWGVLIKHIQRQTPKNGQPPYPEQESYVLDVLLKVSGDFNPKTRGEGPMPEGIMPAGKDSKNARWEVVPCLLNCLRALGQLRVFLPKRLESADEKDGVGKAVDEISRRFPDGIPILDPMENMGINDDSFKKLLRKIEVLESRLVANPLHNSPLLVELWNQYSLKMQLGEQIKEKKKAIARAHSVAQLDELKSRKRVLRRLGFINDAEVVQMKARVACEISSTEGHELLLAELLFNRFFNELSPEICACILSCFIFDEKIETQALKEELAKPFREIQAQARIIAKVSAESKLDVNEDEYVQSLKWQLMETVLAWAQGRPFSEICKMTNVYEGSLIRLFRRLEELLRQMAEAARVMGSEELKDKFELSLSKIRRDIVSFNSLYL | no binding (condition: with 500 mM or 1000 mM NaCl) |
| binds | no binding | no binding | no binding | White Collar-2 (WC-2) (protein, UniProt P78714 1-530) MSHGQPPPGSSMYGFGAMGMGSGMGSGMGSGMGTGMGTGMGTGMSASQMTSDPQDMMSLLDTSVFPGFDGMSMSLDVGDSMSNPFTPVSVPPPLPAGNAGPSHVGVCGGHGAPDQLFSPDDLIATSMSSAGPMIATPTTTTSGPSGGPSSGGGSTLTEFTKRRNWPAKVVEELQDWEHILDANGRIKHVSPSVEPLTGYKPPEIIDLFLRDLIHPDDVGVFTAELNEAIATGSQLRLFYRFRKKDGNWTIFETVGHAHIAAAKFAPNPQNQSPFCQAVFMMARPYPTKNAGLLDSFLEHKIENERLKRRIAELRREEQEEQEESHRTWRMSQEGRSDVTPSDDTATQMGMTPFYIPMNAQADVMMPPPSQPASSLNIALTRENLEGIAGSRPDSIREKMLRYEGNHADTIEMLTGLKYQEGERSHGITTGNASPTLIKGDAGIAIPLDRDPRTGEKKKKIKVAEEYVCTDCGTLDSPEWRKGPSGPKTLCNACGLRWAKKEKKKNANNNNNGGGIGGHNDIHTPMGDHMG | binds |

Reference: publication PMC10320511
